This data set is described as follows: 7-day Maximum Tolerated Dose 1 (MTD1) rat study. The format is in vivo, Wistar Han rats. Details: unit not given here. The note with it: MTD1 60 mg/kg/day, Females, Day 1 then Day 7. The source says: See the summary of the study design in Supplementary Table 31. Nine-week-old Wistar (Crl:WI (Han)) rats were obtained from Charles River Laboratories (Domaine des Oncins, Saint-Germain-Nuelles, France). […] Animals were examined daily for any altered clinical signs, body weights, and food consumption. Blood samples were taken at different timepoints after the test item administration, and toxicokinetic exposure assessed under the defined experimental conditions and analyzed using Phoenix (version 6.4 and 1.4) (Supplementary Table 32). Measurements included hematology and clinical chemistry measurements. Animals were euthanized and necropsied at the end of the dosing period. At necropsy, major organ systems and tissues were collected and weighed and then examined for gross lesions as well as for microscopic changes.

Entries with a single value are a further part of the results.

Consider one compound from paper PMC9021288 (Nature Communications, 2022).

With `C[C@@H](CNC(=O)[C@H](O)C(C)(C)CO)NC(=O)c1cc(F)c(F)cc1F` [MMV693183], the Cmax runs as follows: (Day 1) 73.1; (Day 7) 59.5.
